In all, about 310,000 compounds went through this assay and about 2,200 (0.71%) showed an effect of 50% or more. Effects have a minus sign here. The list shows a part of the results.
target: human ether-à-go-go-related gene (hERG) potassium channel (human, UniProt Q12809); test: primary screen, population patch clamp on CHO cells stably expressing hERG
Sequence (Q12809 whole entry, looked up): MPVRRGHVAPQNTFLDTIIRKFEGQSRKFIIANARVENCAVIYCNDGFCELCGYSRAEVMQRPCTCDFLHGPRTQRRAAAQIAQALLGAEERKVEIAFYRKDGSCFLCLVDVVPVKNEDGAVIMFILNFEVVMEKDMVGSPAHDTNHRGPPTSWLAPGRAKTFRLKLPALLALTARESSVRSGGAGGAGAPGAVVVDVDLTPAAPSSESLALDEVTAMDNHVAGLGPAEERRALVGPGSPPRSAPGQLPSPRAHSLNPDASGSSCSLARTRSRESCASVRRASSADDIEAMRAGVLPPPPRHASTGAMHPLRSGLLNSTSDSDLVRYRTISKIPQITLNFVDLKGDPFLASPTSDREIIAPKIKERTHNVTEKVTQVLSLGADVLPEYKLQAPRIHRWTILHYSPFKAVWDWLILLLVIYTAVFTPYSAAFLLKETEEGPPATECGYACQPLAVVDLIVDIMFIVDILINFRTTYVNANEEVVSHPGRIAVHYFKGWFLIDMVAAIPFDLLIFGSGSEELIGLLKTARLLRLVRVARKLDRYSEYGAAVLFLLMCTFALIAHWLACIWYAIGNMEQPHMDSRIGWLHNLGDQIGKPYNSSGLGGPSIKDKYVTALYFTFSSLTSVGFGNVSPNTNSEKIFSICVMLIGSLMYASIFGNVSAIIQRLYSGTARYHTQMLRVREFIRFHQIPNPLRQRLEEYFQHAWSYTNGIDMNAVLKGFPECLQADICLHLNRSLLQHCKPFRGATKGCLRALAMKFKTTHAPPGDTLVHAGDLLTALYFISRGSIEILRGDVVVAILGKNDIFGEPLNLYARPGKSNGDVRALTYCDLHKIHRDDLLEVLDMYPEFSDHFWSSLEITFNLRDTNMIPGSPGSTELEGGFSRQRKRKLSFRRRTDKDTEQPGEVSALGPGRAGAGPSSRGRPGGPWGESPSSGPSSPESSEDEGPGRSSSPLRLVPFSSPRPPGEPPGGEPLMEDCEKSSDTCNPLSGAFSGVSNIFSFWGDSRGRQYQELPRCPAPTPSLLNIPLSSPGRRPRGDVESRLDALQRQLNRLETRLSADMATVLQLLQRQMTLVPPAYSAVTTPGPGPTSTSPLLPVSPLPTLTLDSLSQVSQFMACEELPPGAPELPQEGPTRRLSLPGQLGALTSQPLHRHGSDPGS

Structure (SMILES)	hERG current change (%, negative = inhibition) at 1uM [%]
Cc1cc(C)n(-c2ccc(Cl)c(C(=O)Nc3ccc(-c4nnc5n4CCCCC5)cc3)n2)n1	0.593
O=C1COc2ccc(S(=O)(=O)N3CCN(c4cccc(Cl)c4)CC3)cc2N1	9.72
N/C(=N\OC(=O)c1ccccc1Cl)c1ccccc1	-12.6
O=c1cnnc(SCc2ccc([N+](=O)[O-])cc2)[nH]1	-0.281
O=C(O)CC(c1cccc2ccccc12)n1cccc1 (stereo not shown)	10.7
CCOC(=O)c1c(NC(=O)C2C3C=CC(C3)C2C(=O)O)sc2c1CC(C)CC2 (stereo not shown)	17.4
N#CC1=C(N)NC(SCc2ccccc2)=C(C#N)C12CCCC2	0.374
CC(C)C(=O)Nc1sc2c(c1C(N)=O)CCN(Cc1ccccc1)C2.Cl	-40.9
COCCCNC(=O)Cn1c(=O)n(Cc2ccccc2Cl)c(=O)c2cc(OC)c(OC)cc21	8.28
CN(C)/C=C/C(=O)/C=C/c1cn(-c2ncc(C(F)(F)F)cc2Cl)c2ccccc12	10.8
COc1ccc(-c2nnn(CC(=O)N(CCCO)C(C(=O)NC3CCCC3)c3ccncc3)n2)cc1 (stereo not shown)	20
COc1ccc(CNC(=O)COC(=O)c2cncc(Br)c2)cc1	-0.142
Cc1ccc2nc(SCc3nnc(-c4ccccc4)o3)[nH]c2c1	3.72
CCOC(=O)c1sc(NC(=O)c2cccc(S(=O)(=O)N3CCc4ccccc43)c2)c(C#N)c1C	3.28
Cc1nn(Cc2c(Cl)cccc2Cl)c(C)c1NC(=O)c1cnn2c(C(F)F)cc(-c3ccccc3)nc12	11
COc1cccc(CN(C(=O)COc2ccccc2[N+](=O)[O-])C2CCS(=O)(=O)C2)c1 (stereo not shown)	-3.69
COc1ccc(/C(O)=C2\C(=O)C(=O)N(CCN(C)C)C2c2cccc(OC)c2OC)cc1Cl (stereo not shown)	9.03
Cc1nc2ccccc2cc1C(=O)N/N=C/c1cccc([N+](=O)[O-])c1	4.73
CC1CCC(CN2CCN=C2N(C)C)CC1 (stereo not shown)	0.857
C/C(=N\NC(=O)C1CCCC1)c1ccc(Cl)cc1Cl	14.1
O=C(CCCC(=O)c1ccccc1)NCCc1ccccc1	12.3
O=C1c2ccccc2C(=O)N1CC(=O)N1c2ccccc2CCc2ccccc21	12.1

Structure (SMILES)	hERG current change (%, negative = inhibition) at 1uM [%]
COc1ccccc1OCC(=O)Nc1cccc(-c2nc3ccccc3o2)c1	1.28
NC(=O)/C(=C\c1ccccc1)NC(=O)/C=C/c1ccccc1	8.98
CC(=O)Nc1ccc2nc(NC(=O)c3ccc([N+](=O)[O-])o3)sc2c1	15.6
Cc1c(NC(=O)/C(=C\c2ccccc2)NC(=O)c2ccccc2)c(=O)n(-c2ccccc2)n1C	14.9
CC(=O)NC(Cc1ccc(O)cc1)C(=O)NN (stereo not shown)	7.47
COc1cc(OC)c(CN2CCN(c3ccc(F)cc3)CC2)cc1Br	-43.3
COc1ccc(Nc2ccc(C(=O)O)cc2[N+](=O)[O-])cc1	11.9
Cc1cc(C)nc(SCC(=O)Nc2ccc(S(=O)(=O)Nc3cc(C)on3)cc2)n1	18.9
COC(=O)c1ccc2nc(C3CCCCC3)c3c(c2c1)CCC3	12.7
CC(=O)NC(CCS(C)(=O)=O)C(=O)Nc1ccc(Cl)c(Cl)c1 (stereo not shown)	3.56
O=C(COC(=O)Cc1ccccc1[N+](=O)[O-])NNC(=O)c1ccc([N+](=O)[O-])cc1	10.8
CCOC(=O)CN1C(=O)N[C@@H](c2cccc(C(F)(F)F)c2)[C@H](C(C)=O)[C@H]1C	10.9
Cc1ccc(SCC(=O)Nc2ccc(C(=O)Nc3ccc(O)cc3)cc2)cc1	12.6
O=C(O)Cn1nnc(-c2ccc(OCc3ccccc3)cc2)n1	16.8
CCc1ccc(N2CC(C(=O)NNC(=O)c3ccc(F)cc3)CC2=O)cc1 (stereo not shown)	-14.2
Cc1ccnn1-c1ccc(C(=O)N2CCCN(S(=O)(=O)c3ccc(F)cc3)CC2)cc1	-32.6
Cc1ccc(-c2c(C#N)c(N)n(-c3ccccc3)c(=O)c2C#N)cc1	16.6
CCOc1ccc(C2C(C#N)=C(N)N3C(=C2C#N)Sc2ccccc23)cc1 (stereo not shown)	12.8
Brc1ccc(CSc2nnc(Cc3c[nH]c4ccccc34)o2)cc1	1.95
COc1ccc2[nH]c(C(=O)N3CCN(Cc4ccccc4)CC3)cc2c1OC	7.58
FC(F)(F)c1ccccc1N1CC1c1ccncc1 (stereo not shown)	5.53

From publication PMC4336329 (PLoS ONE, 2015)
